The other results are listed elsewhere or left out.

In the experiment the test system is PF3D7_0420300 AP2 domain 1 (GST-tagged). Briefly: gcPBM binding intensity (ln(normalized median fluorescence intensity)); higher = stronger DNA binding. The method, boiled down:
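An Agilent 4 × 180k array of primer-extended double-stranded 36-bp intergenic genomic probes, with negative controls, was incubated for 1 h with GST-tagged P. falciparum DNA-binding domains expressed in E. coli. Alexa488 anti-GST antibody detected bound protein, scanned at 488 nm. Binding intensity is the highest Masliner-normalised natural-log median intensity across replicate spots of either probe orientation.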
“GTAGGATTTTCTTTTGTGCGCAATATAAAAAGAAAA [GTGCAC_site9514]”: the “gcPBM binding intensity (ln)” value was 8.85.

For “ATTAATATAAAAAGGTAAATGGATGTAATATATATA [XGTACX_negctrl_site2]”, the “gcPBM binding intensity (ln)” value was 9.44. Regarding “AAAATTGTTATTTTATGTACTTATATTTATTTATTT [XGTACX_site3478]”, the “gcPBM binding intensity (ln)” value stood at 9.53. Regarding “TTTTTTTTGTGTATTTGTACATAATATATATATATA [XGTACX_site7092]”, the “gcPBM binding intensity (ln)” value turned out to be 9.45. Under “TAATACCATTGTCATGCATGCACATTATTACTCTAA [TGCATGCA_site160]” stands 9.32; under “TCGTAATTTTTTTTTATATATTAGGAATTTATAAAA [XGTACX_negctrl_site409]”, 8.94; under “ATATTATATTTCTTTTGTACATATTATATAATATAT [XGTACX_site7198]”, 9.4. Under ATATATATTGTACTAGTGCATATATATACATATATT stands 9.27; under “ATAAATAAAAACACAAAACAAAACAAAACAAAACAA [CACACA_negctrl_site1257]”, 9.41; under “TTTCATCTATATGAAACACACAAAGGAAAAAAAATT [CACACA_site7869]”, 9.45. Under “AGATTCAAAAATAAAACATGCAAAAATAAAACGTGC [TGCATGCA_site501]” stands 9.75; under “TAATAAATGGCTAGTTGTACAGAAATATAAATATTA [XGTACX_site4579]”, 9.18.

With “ATATATATAATATAATGTACATATATTTTATTTTTA [XGTACX_site3819]”, the “gcPBM binding intensity (ln)” value was 9.05. Under “AAAGCACCCAAGAATACACACAAATATTATAAAAAA [CACACA_site111]” stands 9.66; under “ATATATTAATTTAATTGTACGAATAAAAAAAAAAAA [XGTACX_site223]”, 9.21; under “TATATACATTTATGTACACACACATATATGTATATT [CACACA_site8971]”, 9.7. To “ACGTATTAGATAAATACACACACAAGCATATATTTT [CACACA_site9135]” belongs 9.8; to “TAATGTATTATATTTAGTACATATAAAAATAATTTT [XGTACX_site6886]”, 8.98.

For the sequence “ATATATATTTAAATGTGTACTCATTTATTTTATGTC [XGTACX_site4984]”, the “gcPBM binding intensity (ln)” value is 9.28.

Take “TATATATATAAACACACACACACATATATATATATT [CACACA_site8814]”: the “gcPBM binding intensity (ln)” value is 10.1. Under “ATAGTATAACAGCAATGTACACATATTTGTGTATAT [XGTACX_site7899]” stands 9.49. To “TGATATTTATAATAAATATTATAATAAAATCAAACA [XGTACX_negctrl_site219]” belongs 9.

As to “TTTTTTTTTTTTGTCACACATATATTTGTATTTATA [CACACA_site5234]”, the “gcPBM binding intensity (ln)” value was determined as 9.46.

In the case of “ATATATATTTTTATTTGTACATAATTTTTTTTGTGA [XGTACX_site6378]”, the “gcPBM binding intensity (ln)” value is 9.21. To “ATAAAATTGTTTAAATGTACATATGAACAGTCAGTA [XGTACX_site5140]” belongs 9.33; to “TTTTTTTTTTTTTGCACACACATATATAGATATATA [CACACA_site7784]”, 9.7; to “ATATATGTAATAAATAGTACACACACACATATATAT [XGTACX_site2817]”, 10.3. Under “TTTTTTTTTTTTTTTTGTACGTAATATATGATTAAT [XGTACX_site6876]” stands 8.96; under “CATTTTATCAAAAGTGGTACAACCCTTTCAAAAAAT [XGTACX_site341]”, 8.86; under “AAATTACTTTCACAGTGTACTTGGAAAAAAAAAAGA [XGTACX_site1046]”, 9.18. As for “AGATATAATAAATATACACACATATATATATATATA [CACACA_site962]”, the “gcPBM binding intensity (ln)” value was found to be 9.31. Under “TAATTTTATATATGCACACAAAATATGTTCATATAA [CACACA_site4076]” stands 9.13; under “TGAAAAATGTTGATGTGTACTTATATAGTGTGTTAA [XGTACX_site2100]”, 9.49; under “TTTAACATAAATTAAACACACAATATAATACATTAA [CACACA_site1237]”, 9.51.

As to “TTTTTTTTTAAATAATGTACTTTTCATTATTTAGAT [XGTACX_site1706]”, the “gcPBM binding intensity (ln)” value is 9.04. To “TTTTTATTTATTAATACACACACACCCACCCACAAA [CACACA_site7965]” belongs 10.1. To “AAAGAAAAAAATAATTGTACATTTATATTTAATTTA [XGTACX_site8003]” belongs 8.98; to “AAAAAAAATTAATAGGGTACATGAAAAGTGGAATAT [XGTACX_site618]”, 9.9; to “CACATACACATACAAACACACATTAGATATAAATAT [CACACA_site6854]”, 9.66. Turning to “ATAGAAGAAATATGCACACATACATTGAAATGTTTT [CACACA_site321]”, the “gcPBM binding intensity (ln)” value is 9.36.

“TGAACACGCACAAATACACACAAAAAAAATAAATAA [CACACA_site6257]”: the “gcPBM binding intensity (ln)” value worked out at 9.63. Under “CCATTAAGACACATTGCACACGTGCACCCATAGAAA [CACACA_site4388]” stands 9.22; under “AAAAAAAAATTAAAAACACACATATAAATAAATATA [CACACA_site6845]”, 9.52. For the sequence “AACAAAATAGGGAACACACACATGTCAATATATAAA [CACACA_site2596]”, the “gcPBM binding intensity (ln)” value was 9.93. Regarding “GTTTATTTATTATAATGTACATTAGTCTGAGGAGTT [XGTACX_site4035]”, the “gcPBM binding intensity (ln)” value amounted to 9.3. To TTTTATTTATATATAGTGCATATTATTATAAAACAA belongs 8.9; to “CTTTTTTTCCATTAAGCATGCACATTCATATTTACT [TGCATGCA_site170]”, 9.46. Under “ATATATATATATATATGTACATATGTTAATCTGCAT [XGTACX_site1068]” stands 9.22; under “TATATATATATAGGTTGTACATTTTGATGTTTACGT [XGTACX_site5503]”, 9.42; under “TACTTTTTTTTTTTTTTTTTTTTTTTTTCCCTTTTT [CACACA_negctrl_site761]”, 9.13.

As for “TATATTTCTTATTTCTTATTTTGTCATCACCTTTTT [CACACA_negctrl_site1115]”, the “gcPBM binding intensity (ln)” value came out at 9.43. Under “TTACATAATATATGTACACACGCAAATACTTATAAT [CACACA_site7995]” stands 9.49; under “TATAAATATGTTCTTACACACACGAATATAAATATG [CACACA_site7537]”, 9.73; under “AAAAAAATCACATAAAATACTTTATTTTATATTATA [GTGCAC_negctrl_site372]”, 8.94. Under “CACACCCACAAAAACACACACAAAGGTGTTCTTATA [CACACA_site1293]” stands 9.51; under “TGTAGTCTGGAGAAACGTACATAGTATCTGGTAACC [XGTACX_site4939]”, 9.22; under “ATAACATTCATATTCACACAAAAATATACTACATAG [CACACA_site4529]”, 9.38. Under “TATATATATATATATACACACATATATATATTTATA [CACACA_site627]” stands 9.39; under “TATTTATTTTTTTGCACACATATTTTACATTTTAAT [CACACA_site3181]”, 9.76; under “ATTGAAAATTGTTGCACACATAATAATTAAATATAT [CACACA_site1857]”, 9.33. “ATAAAAAAAGGACACACACACATATATATATATATA [CACACA_site5662]”: the “gcPBM binding intensity (ln)” value amounted to 9.93. To “ATATAAAAAGTGTATCGTACATTTACTTATTTTATA [XGTACX_site6249]” belongs 9.17; to “AAAATTATTAAATATGTACACACGTACATTTTATAA [CACACA_site8750]”, 9.11; to “AAATAAATAATAAATAAATAAATAAAATACCAAATA [GTGCAC_negctrl_site620]”, 9.6.

As for “ATATATATATATATATGTACATATACACATGTGTGC [XGTACX_site168]”, the “gcPBM binding intensity (ln)” value is 9.39. On to “TATAAATATGTGTATACACACCTGATAAAGGTATAT [CACACA_site7283]”, for which the “gcPBM binding intensity (ln)” value amounted to 9.55. To “TACTTCTTTTTTATTTATTTTACTTTTTATTCTGTA [CACACA_negctrl_site772]” belongs 9.5.

“GCTTATGCTCAATATTGTACTTTTTTTATTTATTCA [XGTACX_site8863]”: the “gcPBM binding intensity (ln)” value amounted to 9.52. Under “ATTTAATTTTTTTTTAAACACACATTTTTTTATTTA [CACACA_site8880]” stands 9.36; under “TTCAATTATATTCTTTGTACGAATCTTCTATAAATT [XGTACX_site4346]”, 9.11; under “TATTTTGAAATGGAAAGGATATAGAACTTAAACAAA [CACACA_negctrl_site1530]”, 9.18. Under “TTTATAAAAAGCATAACACACACATGTCAATATATA [CACACA_site8286]” stands 9.73.

As to “AACATACGACAATACGCACACATATAAGTACATATT [CACACA_site8584]”, the “gcPBM binding intensity (ln)” value came out at 9.61. Under “ATACATTCAAAATATACACACATATATCTATAATAT [CACACA_site6576]” stands 9.56; under “TTTCTTTAGTAGAATGTAAAAAATATAATCTTCTTA [TGCATGCA_negctrl_site298]”, 8.7. To “TTATGTAGTATAATGAGTACTAAATATAGATATGTT [XGTACX_site6335]” belongs 9.33; to “AATATTATAAATGATACACACTTAAAATACAGACAC [CACACA_site8868]”, 9.84. To “AATTACTTAAATTATTGTACCCTAATGTTAATTTCA [XGTACX_site825]” belongs 9.3. In the case of “TTTTATATCTACCTTTGTACATATTTATTTTTTTTA [XGTACX_site7872]”, the “gcPBM binding intensity (ln)” value was found to be 9.43.

As to “TTCATAAAAAATGTAGTGCATTGAATAAAATTACAT [GTGCAC_site9393]”, the “gcPBM binding intensity (ln)” value turned out to be 9.14. Under “TAAATTTTTTTTTTTTGTACACAAAAATATAATATT [XGTACX_site8151]” stands 8.87; under “TTAATTTTGGTAAATGCATGTAATTAAAAATAAAAA [TGCATGCA_site234]”, 9.05; under “ATATTGAAATTAAAAAAATATATGAACAAATGATGA [CACACA_negctrl_site602]”, 9.4.

With “TATAACAAGTAATGGTGTACATTATATTATGTAATA [XGTACX_site2761]”, the “gcPBM binding intensity (ln)” value stood at 9.18. To “CATATGCGTCTTGCCTTGCACACTTTTATGAAAAAA [CACACA_site2055]” belongs 9.22; to “TAATACTTAAAATGTTGTACATAATAATTTTATATT [XGTACX_site5403]”, 9.08; to “TATATATATATATATACATGCATTTCTCATGTACAT [TGCATGCA_site621]”, 9.14. To “GTCATCATAATCTATTGTACAAAAATTTATACAGAT [XGTACX_site1059]” belongs 9.18.

Values taken from the supplement of paper PMC11417369.
